According to the supplement of paper PMC3334620:
Over roughly 33,000 sequences, “E-score (-0.5 to 0.5)” has its median near -0.054; the highest 2% begin near 0.35. The list shows a part of the results.

What follows are sequences tested against T1, Stb5 (UniProt P38699) (assay: PBM E-score (8-mer binding enrichment) (E-score (-0.5 to 0.5)); higher = stronger / more preferred TF binding; most listed sequences are background and not binding sites). Settings: protein concentration: 200 nM; construct: GST-full length.
T1 sequence: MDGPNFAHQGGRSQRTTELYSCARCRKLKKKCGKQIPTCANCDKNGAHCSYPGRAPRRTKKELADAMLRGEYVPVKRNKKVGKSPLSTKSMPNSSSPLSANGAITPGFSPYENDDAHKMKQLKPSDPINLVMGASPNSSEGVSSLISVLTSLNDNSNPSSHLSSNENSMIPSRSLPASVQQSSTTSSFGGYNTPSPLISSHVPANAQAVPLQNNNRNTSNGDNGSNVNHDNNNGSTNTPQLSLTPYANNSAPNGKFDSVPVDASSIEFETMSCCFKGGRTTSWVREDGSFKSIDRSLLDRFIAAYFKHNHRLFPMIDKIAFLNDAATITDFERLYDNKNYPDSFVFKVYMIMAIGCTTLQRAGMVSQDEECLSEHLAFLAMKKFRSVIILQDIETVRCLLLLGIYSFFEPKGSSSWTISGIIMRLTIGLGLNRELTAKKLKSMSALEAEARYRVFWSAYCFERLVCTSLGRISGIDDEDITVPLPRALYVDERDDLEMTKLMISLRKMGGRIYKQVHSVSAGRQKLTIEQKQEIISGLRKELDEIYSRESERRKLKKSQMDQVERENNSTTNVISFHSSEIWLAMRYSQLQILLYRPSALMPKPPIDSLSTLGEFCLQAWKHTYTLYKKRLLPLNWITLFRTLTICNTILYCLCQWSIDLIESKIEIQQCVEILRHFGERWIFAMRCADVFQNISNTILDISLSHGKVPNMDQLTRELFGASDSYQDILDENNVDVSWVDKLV
How it was run: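 The E-score, a modified Wilcoxon-Mann-Whitney statistic, was computed by the Universal PBM Analysis Suite for every ungapped eight-base word pooled with its reverse complement. Scans behind it were normalised with masliner after bound GST-tagged yeast transcription factors were detected with fluorescent anti-GST. The proteins, at about 100-200 nM, had been applied to universal all-10-mer Agilent arrays made double-stranded by primer extension.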

Row | Sequence | PBM E-score
1 | GGGCTTCA | -0.0612
2 | CAAACGCG | 0.0779
3 | ATAGTCAG | -0.222
4 | AACGCGAC | -0.173
5 | ATTACCTC | 0.0374
6 | GCGTTAGA | 0.115
7 | AATTAACG | -0.0564
8 | ATGCAAAG | -0.0333
9 | CGTGTGTC | 0.152
10 | ATGCTTCG | 0.0216
11 | ACGTTTAG | -0.231
12 | GCCAATTA | -0.194
13 | ACAGGATC | -0.312
14 | CTCACGTC | -0.122
15 | GAAACGAA | -0.0793
16 | AAAATATG | -0.097
17 | CGGGACTA | 0.451
18 | CCCAATTA | -0.0602
19 | GAAGTGAC | -0.0109
20 | CCACATGA | -0.208
21 | CGAAGGGC | 0.00778
22 | GGATGCGA | -0.00405
23 | CTTATCAC | -0.157
24 | ACCCTATA | -0.29
25 | ATTCCATC | -0.122

Row | Sequence | PBM E-score
26 | AGGAAACT | -0.203
27 | CGGGCGGA | 0.359
28 | AAAGATAA | -0.115
29 | GGCCTTAC | 0.248
30 | CAGGACCG | 0.173
31 | CTACAGGA | -0.00469
32 | CGGGCTCC | 0.0609
33 | AAATGATC | -0.138
34 | CCAACAGG | -0.214
35 | CTATATAC | 0.041
36 | CCCGTTCA | 0.206
37 | ACCTGATA | 0.0218
38 | TTGACAAA | -0.102
39 | AAAGGGGG | -0.11
40 | GGTACTAA | 0.306
41 | ACAATCGT | -0.257
42 | GTGGCTAA | -0.0732
43 | CCAAGCGG | 0.228
44 | ACGATCCC | -0.0871
45 | AGAGCAAG | -0.13
46 | ACACGAGT | -0.0819
47 | GGCCACCA | -0.252
48 | GCGGTATA | 0.28
49 | CGTCCATA | 0.0932
50 | CGGAATTA | 0.417

Row | Sequence | PBM E-score
51 | ATTGCAAG | -0.375
52 | AAGGCTAT | 0.00504
53 | CATGTGGC | -0.0206
54 | CCCGAAAG | 0.17
55 | AGGCAGAA | 0.0356
56 | AGATCACA | -0.0286
57 | CTAGCCGC | -0.0169
58 | CCACTTAC | 0.0896
59 | AGAGATCC | -0.0189
60 | ACTACAAT | -0.0293
61 | GGCGCGCC | 0.149
62 | AGGCATCC | -0.261
63 | ATAACACG | -0.0233
64 | ATTTCCCA | -0.308
65 | GGAAGTTA | 0.0793
66 | AATCAAAC | -0.0315
67 | CCCCCCGG | 0.0942
68 | GGTTCATA | -0.09
69 | CTGTGAAG | -0.136
70 | CGAACAGC | -0.0162
71 | CCTGTTAC | -0.0548
72 | CCCTGTGA | -0.223
73 | CGATCTAC | -0.118
74 | GTTGCTAA | 0.0236
75 | AGACCAAG | -0.116

Row | Sequence | PBM E-score
76 | ACCGGTAC | 0.397
77 | GAATGCAA | -0.0267
78 | TGGAGGAA | -0.205
79 | CGATAAGC | 0.113
80 | AGATAGGG | -0.136
81 | CGATTCTA | 0.037
82 | CTGCCAAA | -0.0948
83 | CTACCGCC | 0.305
84 | AAAAGTCC | 0.347
85 | AAGAAGGT | -0.0403
86 | AGTCCACT | -0.226
87 | AAGAACGG | 0.249
88 | AGAAGGCC | 0.152
89 | AAGTCATC | -0.283
90 | CCTTAGCC | -0.0579
91 | TCTAAAGA | -0.133
92 | ACGGGCAC | 0.105
93 | AACCTTAT | -0.107
94 | AACGGATA | 0.244
95 | CCAGTCAA | -0.296
96 | ACTCCGGA | 0.355
97 | AATAGATC | 0.0939
98 | CGCGAGGC | 0.00115
99 | ATGCGAAT | -0.0634
100 | GAAAATGA | -0.0725

Row | Sequence | PBM E-score
101 | AATAATGA | -0.0387
102 | AGACTACC | -0.151
103 | ATCAAACC | 0.0713
104 | GCATAGCC | -0.134
105 | AACGAGTA | -0.106
106 | CGTGGATA | 0.0322
107 | AGCACACT | -0.21
108 | AAGCGGTC | 0.26
109 | ATCCAGTC | -0.0623
110 | GCGGTACA | 0.296
111 | ACGTTCAG | -0.26
112 | ATCAGATC | -0.216
113 | CAATTGTA | -0.111
114 | ACAACCCC | 0.108
115 | GATGGTAC | 0.0392
116 | AGGGACTG | -0.202
117 | ATACGCGG | 0.247
118 | GTGTTTAA | 0.165
119 | ACGATTAG | -0.266
120 | GCAAAAGA | -0.0404
121 | ATAGCCCG | 0.176
122 | AAGTGATT | -0.0326
123 | ATTCCTCC | 0.159
124 | CTAACGAA | -0.00775
125 | CTGTTCGA | -0.175

Row | Sequence | PBM E-score
126 | GGGTGAAC | 0.0974
127 | ATAGACCG | 0.239
128 | GACTTTTA | 0.0546
129 | CTGTTGCC | -0.037
130 | CTTCGCTC | 0.0297
131 | GGTTAATA | 0.213
132 | CAGCTGGG | -0.0897
133 | CTGCCGTC | 0.121
134 | GAAATCCA | -0.0752
135 | CATTTCAC | -0.0886
136 | TAATCAGA | 0.0338
137 | GCCCTCAC | -0.0791
138 | CTCCGCAC | 0.21
139 | CATCTGCC | 0.0249
140 | AACTGCTC | -0.231
141 | CCTGGGGC | -0.19
142 | ACATGAAT | -0.255
143 | CGCTCTCC | 0.0161
144 | CCCCTCCA | -0.0355
145 | ACGATGGG | -0.12
146 | CTATAACA | 0.0862
147 | AGATTCCC | 0.0129
148 | ATAGCCTA | -0.279
149 | AGGCTTAT | -0.239
150 | ATAACGGA | 0.252

Row | Sequence | PBM E-score
151 | GTCTTAGA | -0.00713
152 | CGTGCAAC | -0.0492
153 | AATACAGG | 0.0627
154 | GCTGCTAA | 0.122
155 | GTTGGCTA | -0.238
156 | ACGCGCCC | 0.0789
157 | AACAGATC | -0.277
158 | GGGTTACC | 0.138
159 | CCATTATC | 0.0468
160 | CCAGTCCG | 0.163
161 | CTAAATGC | 0.134
162 | GGGGGAAA | 0.165
163 | AAAGGGAA | -0.00346
164 | AACGAATG | -0.273
165 | CAGTATAC | -0.0649
166 | CGGGGTTC | 0.388
167 | CAAATACG | -0.129
168 | ATTCAGCA | -0.272
169 | CTTTTCAA | 0.117
170 | GGAGCCCC | 0.144
171 | CAAAGAGC | 0.0172
172 | GAAAATAC | 0.102
